# PMC6919601, “Identification of Plasmodium dipeptidyl aminopeptidase allosteric inhibitors by high throughput screening” (PLoS ONE, 2019)
# Screen size: about 110,000 compounds; about 230 (0.21%) showed an effect of 50% or more. The list shows a part of the results.
# Target: DPAP1 (Plasmodium falciparum, UniProt Q8IIJ9)
# Assay: primary screen, percent inhibition; read by cleavage of a fluorogenic dipeptide substrate; higher = more effect of the substance
# Set-up: species or system P. falciparum D10 trophozoite lysates; single well
# 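Also: 30 min substrate incubation versus DMSO and 10 µM JCP410 controls.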
# DPAP1, sequence (Q8IIJ9 whole entry, looked up): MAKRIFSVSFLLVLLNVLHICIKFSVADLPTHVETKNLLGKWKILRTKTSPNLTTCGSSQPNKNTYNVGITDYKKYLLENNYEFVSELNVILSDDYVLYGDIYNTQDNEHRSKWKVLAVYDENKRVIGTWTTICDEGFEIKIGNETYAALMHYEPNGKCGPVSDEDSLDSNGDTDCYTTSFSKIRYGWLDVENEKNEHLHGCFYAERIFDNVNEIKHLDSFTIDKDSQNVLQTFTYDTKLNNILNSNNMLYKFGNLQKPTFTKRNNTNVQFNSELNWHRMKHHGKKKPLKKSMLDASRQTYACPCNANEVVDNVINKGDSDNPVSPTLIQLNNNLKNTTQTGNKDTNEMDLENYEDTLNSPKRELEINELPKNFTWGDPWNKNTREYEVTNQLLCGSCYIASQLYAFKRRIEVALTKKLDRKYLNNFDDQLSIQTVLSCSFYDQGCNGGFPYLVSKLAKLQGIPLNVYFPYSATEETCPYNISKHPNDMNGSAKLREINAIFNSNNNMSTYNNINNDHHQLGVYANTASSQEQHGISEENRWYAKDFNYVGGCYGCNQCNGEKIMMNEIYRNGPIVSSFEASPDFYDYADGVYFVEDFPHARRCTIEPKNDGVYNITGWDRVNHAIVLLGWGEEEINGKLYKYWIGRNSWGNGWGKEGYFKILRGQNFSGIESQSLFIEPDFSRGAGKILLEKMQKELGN
row,SMILES,% Inhibition @ 10 uM [%]
1,O=C(Cc1ccccc1)Nc1ccc2oc(-c3ccccc3F)nc2c1,0.52
2,Cc1c(N)cc(C(=O)O)cc1[N+](=O)[O-],-2.41
3,CN1CCC(N(C)Cc2ccc3ccccc3c2)CC1,0.847
4,N#C/C(=C\c1cccc(Br)c1)c1nn(CCO)c(N)c1C#N,13.2
5,O=C1N/C(=C/c2cccn2-c2ccc(F)cc2)C(=O)N1Cc1ccccc1,0.161
6,COc1ccc(CCn2c(=O)c(C#N)cc3c(=O)n4cc(C)ccc4nc32)cc1OC,-0.551
7,CC1=Nc2ncnn2C(c2cccc(O)c2)/C1=C(/O)OCc1ccccc1 (centres unmarked),-4.93
8,Cc1cc(NC(=O)CSc2nnc(-c3ccc4c(c3)OCCO4)o2)no1,9.59
9,O=C(Cn1ncc2c1-c1ccccc1OC2)Nc1cc(-c2cccc(Cl)c2)no1,-6.07
10,CCCc1nc(SC)ncc1C(=O)O,-5.12
11,O=C(N/C(=C/c1ccc(Cl)cc1)c1nc2ccccc2[nH]1)c1ccccc1,0.0538
12,CC(=O)Nc1cc(C(=O)O)ccc1NCc1ccccc1,-4.02
13,O=C(Cn1ncn2nc(-c3cccs3)cc2c1=O)NCc1ccccn1,-1.08
14,O=C(O)CCCCCNc1nc(-c2ccccc2)nc2ccccc12,-6.59
15,O=C1/C(=C/c2cccnc2)S/C(=N/Cc2ccccc2)N1Cc1ccccc1,-0.339
16,Nc1nc(C23CC4CC(CC(C4)C2)C3)cs1,-3.55
17,COc1cc(C2CC(=O)NC3=C2C(=O)CC(c2ccccc2Cl)C3)c(OC)cc1Br (centres unmarked),-3.51
18,CCOC(=O)C1CCCN(Cc2ccc(Cl)c(Cl)c2)C1 (centres unmarked),-0.127
19,CC(C)(C)c1ccc(C(=O)N2CCC(C(=O)Nc3c(F)cccc3F)CC2)cc1,0.931
20,Nc1nonc1-c1nc2ccccc2n1CC(=O)NCc1ccco1,-1.11
21,c1ccc2oc(Cc3nc4ccccc4o3)nc2c1,1.08
22,CN(C)/C=N/c1c(C#N)cnn1-c1ccccc1,-2.53

row,SMILES,% Inhibition @ 10 uM [%]
1,CN(C(=O)c1ccccc1Cl)C1(C(=O)NC2CCCC2)CCCCC1,-9.7
2,CCCOc1cc(C)cc2oc(=O)cc(-c3ccccc3)c12,-0.339
3,O=C(CN1N=C(c2ccc(Cl)cc2)CCC1=O)NCCC1=CCCCC1,3.79
4,CCc1ccc(OC(C)C(=O)N(Cc2ccccc2F)C2CCS(=O)(=O)C2)cc1 (centres unmarked),0.366
5,COc1ccc2[nH]c3c(=O)n(CCC(=O)NC4CCC(C)CC4)c(=S)[nH]c3c2c1 (centres unmarked),-3.95
6,COc1ccc(SCCc2ccc(C)nc2)cc1,-1.76
7,CCCC1CCc2c(n(C)c3ccccc3c2=O)O1 (centres unmarked),-7.62
8,Cc1ccc(NC(=O)CN2CCOCC2)cc1,-4.6
9,N#Cc1c(N)nc2c(c1-c1ccccc1)CCCCC2,-2.55
10,CC(C)(C)c1cc(Cc2ccccc2)[nH]n1,3.44
11,Cc1ccc2c(c1)cc1c(=O)n(Cc3ccccc3C)nc(C)n12,-2
12,COc1ccc2nc(CC(C)(C)CC(=O)O)c[n+]([O-])c2c1,5.45
13,O=C(Nc1ccc(Cl)cc1)C1CC(=O)N(c2ccc(Oc3ccccc3)cc2)C1 (centres unmarked),-3.85
14,COc1cc(C2C3=C(CC(C)(C)CC3=O)OC3=C2C(=O)CC(C)(C)C3)cc(OC)c1O,7.62
15,O=C(Nc1cccc(-c2nc3ccccc3s2)c1)c1ccc(F)c(F)c1,-2.81
16,COc1ccc(C2C3=C(CC(C)(C)CC3=O)N(CC(=O)O)C3=C2C(=O)CC(C)(C)C3)cc1Cl,0.214
17,CSc1cc(N2CCOCC2)nc(-c2ccccc2Cl)n1,4.03
18,CCCc1ccc(OCc2ccc(C(=O)N3CCN(c4ccccn4)CC3)o2)c(OC)c1,3.72
19,COc1cc(SC)ccc1C(=O)N1CCN(c2ccccc2)CC1,0.983
20,CCOc1ccc(-c2cc(N)n(S(=O)(=O)c3cccc4nsnc34)n2)cc1,7.21
21,CC1(C)CC(=O)C(/C=N/c2ccc3c(c2)CCC3)=C(O)C1,-1.64
22,Cc1cc(-c2n[nH]c3c2C(C(C)c2ccccc2)C(C#N)=C(N)O3)c(C)s1 (centres unmarked),-2.24

row,SMILES,% Inhibition @ 10 uM [%]
1,Clc1cccc(N2CCN(Cc3ccc(Br)cc3)CC2)c1,-5.5
2,O=C(Nc1ccc(Cl)cc1)c1cc(Br)cc(Br)c1O,4.88
3,Cc1ccc(-c2cc(C(C)(C)C)nc(N)c2C#N)cc1,2.65
4,COCCNC(=O)c1ccc2c(c1)nc(C)n2-c1ccc(F)cc1F,-0.458
5,CCN1CCN(C2CCC(C(C)(C)C)CC2)CC1 (centres unmarked),1.08
6,Cc1nnc(N2CCC(C(=O)NC(C)c3ccccc3)CC2)c2nn(-c3ccccc3)c(C)c12 (centres unmarked),-3.24
7,COc1cc(C2c3c(-c4c(C)cc(C)cc4O)n[nH]c3C(=O)N2Cc2ccco2)ccc1O (centres unmarked),-3.49
8,CC(=O)c1ccc(NC(=O)Cn2nnc3ccccc32)cc1,0.989
9,C/C(=N/N=C\c1cccc2ccccc12)c1nnn(-c2nonc2N)c1C,4.42
10,Cc1c(Br)c(C(F)(F)F)nn1CC(=O)Nc1sc2c(c1C(N)=O)CCCC2,-3.13
11,O=C(CSc1nc(-c2cccs2)cc(C(F)(F)F)n1)NCc1cccnc1,3.04
12,CCOc1cc(C(=O)N2CCCC2)cc(OCC)c1OCC,-1.89
13,CCOc1ccccc1N1CCN(C(=O)c2ccccc2Br)CC1,3.32
14,Cc1nc2scc(C)n2c(=O)c1S(=O)(=O)NC1CCN(Cc2ccccc2)CC1,-3.32
15,CCc1nnc(NC(=O)CSc2nc(-c3cccs3)nc3c2c(=O)n(C)c(=O)n3C)s1,2.34
16,COc1ccc(CSc2nnc3nc(C)cc(C)n23)cc1,-3.4
17,CCCN1Cc2cccc(C(=O)NCc3ccc4c(c3)OCO4)c2C1=O,-6.06
18,CC1CN(C(=O)c2ccccc2Oc2ccccc2)CC(C)O1 (centres unmarked),6.12
19,COC(=O)c1nonc1-n1cccc1C=O,3.04
20,COc1ccccc1NC(=O)C1=C(C)N=C2CCCC(O)=C2C1c1ccccc1OC(C)C (centres unmarked),2.51
21,CCCCOc1ccc(S(=O)(=O)N2CCC(C)CC2)cc1,0.162
